# In PubChem BioAssay (NCATS):
# Several values for one entry are separate records, joined by “and”; a condition that tells them apart may be missing. Equal values may be shown once. Inconclusive results, whose numbers are uncertain, are shown with a selection of clear calls. Where the call is inconclusive, the potency comes from a doubtful curve fit. Activity calls are given as the source filed them. Calls come from the whole dose curve; as a rule, active = well fitted curve in the direction sought with a large enough effect; inconclusive = small, poorly fitted or top-dose-only effect, or another doubt; inactive = no such curve, though single readings can be large; an effect the other way counts as inactive or inconclusive.
# Experiments:
# [1] = Viability qHTS for spleen associated tyrosine kinase inhibitor (SYKi) naive MV4-11 cells (AID 1963823); conditions: MV4-11 AML viability, CellTiter-Glo luminescence, 72 h; viability (% of control): at 45 µM (top of the series); note: nearly all actives have a fitted effect of over 40% in size
# In short: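 SYK inhibitor-naive MV4-11 cells, 500 per well, exposed to compounds for 72 hr at 37 C, 5% CO2. Viability read as CellTiter-Glo luminescence after 10 min at room temperature.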
# [2] = Viability qHTS for spleen associated tyrosine kinase inhibitor (SYKi) drug resistant MV4-11 cells (AID 1963824); note: nearly all actives have a fitted effect of over 35% in size
# In short: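 SYK-inhibitor-resistant MV4-11 AML cells were seeded at 500 per well onto compound and cultured 72 hours (37 °C, 5% CO2). CellTiter-Glo was then added, and after 10 min at room temperature, luminescence gave viability.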
# [3] = Quantitative highthroughput screen to assess conditional lethalithy of NOMO1 cells grown in RPMI1640 with dialyzed fetal bovine serum (RPMI+ds) (AID 1963877); note: nearly all actives have a fitted effect of over 30% in size;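 for Viability: 100% = DMSO control wells and 0% = empty wells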
# In short: (§1)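 Each medium arm—HPLM with 10% dialyzed FBS, or RPMI1640 with 5 mM glucose and 10% untreated or dialyzed FBS—was screened against an 11-point, 3-fold compound titration for 48 h at 37 °C, with CellTiter-Glo luminescence as endpoint.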
# [4] = Quantitative highthroughput screen to assess conditional lethalithy of P12 Ichikawa cells grown in Human Plasma-Like Medium with dialyzed fetal bovine serum (HPLM+ds) (AID 1963879); conditions: Potency: viability; note: nearly all actives have a fitted effect of over 35% in size
# In short: as §1
# [5] = Quantitative highthroughput screen to assess conditional lethalithy of SEM cells grown in RPMI1640 with dialyzed fetal bovine serum (RPMI+ds) (AID 1963884); conditions: SEM B-ALL cells, RPMI+dialyzed FBS, CellTiter-Glo viability, 48 h; viability: at 45.8 µM (top of the series); note: nearly all actives have a fitted effect of over 35% in size;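 for Viability: 100% = DMSO control wells and 0% = empty wells without cells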
# In short: as §1
# [6] = Cellular viability qHTS for adrenocortical cancer (ACC) cell line NCI-H295R (AID 1963990); conditions: CellTiter-Glo ATP luminescence, 48 h; activity change, negative = viability loss: at 46.1 µM (top of the series); note: nearly all actives have a fitted effect of over 60% in size;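 for activity change, negative = viability loss: 0% = DMSO only wells and -100% = full killing with cytotoxic reference compound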
# In short: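 CellTiter-Glo ATP luminescence, read 48 h after compound addition, measured viability of NCI-H295R adrenocortical cells grown serum-free with ITS. Final concentrations spanned up to 46 uM. Data normalized to DMSO and doxorubicin, fitted for IC50 and maximal response.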
# [7] = Quantitative highthroughput screen to assess conditional lethalithy of P12 Ichikawa cells grown in RPMI1640 with dialyzed fetal bovine serum (RPMI+ds) (AID 1963880); conditions: Potency: P12-Ichikawa viability; note: nearly all actives have a fitted effect of over 35% in size;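 for Viability: 100% = DMSO wells and 0% = empty wells on each plate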
# In short: as §1
# [8] = Quantitative highthroughput screen to assess conditional lethalithy of P12 Ichikawa cells grown in RPMI1640 with untreated serum (RPMI+s) (AID 1963881); conditions: Potency: viability; note: nearly all actives have a fitted effect of over 35% in size;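 for Viability: 100% = DMSO wells and 0% = empty wells without cells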
# In short: as §1
# [9] = Quantitative highthroughput screen to assess conditional lethalithy of SEM cells grown in Human Plasma-Like Medium with dialyzed fetal bovine serum (HPLM+ds) (AID 1963882); note: nearly all actives have a fitted effect of over 35% in size
# In short: as §1
# [10] = Quantitative highthroughput screen to assess conditional lethalithy of SEM cells grown in RPMI1640 with unreated serum (RPMI+s) (AID 1963883); conditions: SEM B-ALL cells, CellTiter-Glo viability, 48 h; viability: at 45.8 µM (top of the series); note: nearly all actives have a fitted effect of over 35% in size;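 for Viability: 100% = DMSO wells and 0% = empty wells without cells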
# In short: as §1
# [11] = Cellular viability qHTS for adrenocortical cancer (ACC) cell line SW-13 (AID 1963989); conditions: SW-13 ACC cells viability, CellTiter-Glo, 48 h; activity (max response): stronger effect = lower value; note: nearly all actives have a fitted effect of over 65% in size;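 for activity (max response): cells grown in serum-free medium with ITS supplement; % is set by controls: 0 for no effect and ±100 for the full control effect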
# In short: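 Viability was read as CellTiter-Glo luminescence after 48 h compound treatment (up to 46 uM final) of SW-13 cells grown serum-free; titration curves were fit with a four-parameter logistic model to give IC50 and efficacy.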
# [12] = Quantitative highthroughput screen to assess conditional lethalithy of NOMO1 cells grown in Human Plasma-Like Medium with dialyzed fetal bovine serum (HPLM+ds) (AID 1963878); conditions: NOMO1 AML cells in HPLM+ds, CellTiter-Glo viability, 48 h; viability: at 45.8 µM (top of the series); note: nearly all actives have a fitted effect of over 35% in size;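 for Viability: 100% = DMSO wells and 0% = empty wells on each plate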
# In short: as §1
# Potency is the fitted concentration of half-maximal effect; tags give direction and shape of the fitted curve.
structure (smiles),measurement,setting,value
CC[C@@]1(O)C(=O)OCc2c1cc1n(c2=O)Cc2cc3c(CN(C)C)c(O)ccc3nc2-1,Potency,[1],active: 59.6 nM and active: 58 nM
same,Potency,[2],"active: 33.2 nM and inconclusive: 51.7 nM [cytotoxic, full curve]"
same,Potency,[3],active: 0.526 µM
same,Potency,[4],active: 0.105 µM
same,Potency,[5],active: 0.105 µM
same,Potency,[6],"inconclusive: 6.31 µM [cytotoxic, full curve]"
CN(C)N=Nc1nc[nH]c1C(N)=O,Potency,[1],"inconclusive: 2.09 µM [cytotoxic, full curve]"
same,Potency,[2],"inconclusive: 2.35 µM [cytotoxic, full curve]"
same,Potency,[3],"inconclusive: 2.64 µM [cytotoxic, full curve]"
same,Potency,[7],"inconclusive: 1.48 µM [cytotoxic, full curve]"
same,Potency,[8],active: 2.09 µM
same,Potency,[9],inactive
same,Potency,[10],"inconclusive: 33.2 µM [cytotoxic, single point]"
same,Potency,[5],active: 0.833 µM
same,Potency,[11],"inconclusive: 25.1 µM [cytotoxic, single point]"
same,Potency,[6],"inconclusive: 28.2 µM [cytotoxic, partial curve]"
N=c1ccn2c(n1)O[C@H]1[C@@H](O)[C@@H](CO)O[C@H]12,Potency,[1],active: 2.95 µM
same,Potency,[2],active: 3.32 µM
same,Potency,[3],active: 1.48 µM
same,Potency,[9],active: 0.132 µM
same,Potency,[5],active: 0.0935 µM
same,Potency,[11],"inconclusive: 4.47 µM [cytotoxic, partial curve, poor fit]"
COC(=O)Nc1nc2ccc(C(=O)c3ccccc3)cc2[nH]1,Potency,[1],"inconclusive: 0.596 µM [cytotoxic, full curve]"
same,Potency,[2],active: 596 nM and active: 372 nM
same,Potency,[3],"inconclusive: 3.32 µM [cytotoxic, full curve]"
same,Potency,[8],active: 0.332 µM
same,Potency,[9],"inconclusive: 0.0743 µM [cytotoxic, full curve, poor fit]"
same,Potency,[10],"inconclusive: 0.743 µM [cytotoxic, full curve, poor fit]"
same,Potency,[5],"inconclusive: 0.0743 µM [cytotoxic, full curve, poor fit]"
same,Potency,[11],active: 130 nM and active: 316 nM
COc1nc(-c2ccc3c(c2)OCO3)n(-c2ccc(NC(=O)CSc3ccccc3)cc2)n1,Potency,[1],"inconclusive: 29.1 µM [cytotoxic, single point]"
same,Potency,[2],"inconclusive: 18.6 µM [cytotoxic, partial curve]"
same,Potency,[3],"inconclusive: 33.2 µM [cytotoxic, single point]"
same,Potency,[9],inactive
same,Potency,[10],inactive
same,Potency,[5],inactive
same,Potency,[11],"inconclusive: 25.1 µM [cytotoxic, partial curve, poor fit]"
Cc1[nH]c(=O)c(C#N)cc1-c1ccc2nccn2c1,Potency,[1],inconclusive: 0.0009 µM
same,Potency,[2],inconclusive: 0.0009 µM
same,Potency,[3],inactive
same,Potency,[8],inactive
COc1cc(C(=O)NC2CCN(C)CC2)ccc1Nc1ncc2c(n1)N(C1CCCC1)CCC(=O)N2C(C)C,Potency,[1],active: 5.9 µM
same,Potency,[2],active: 4.17 µM
same,Potency,[3],"inconclusive: 33.2 µM [cytotoxic, single point]"
same,Potency,[9],"inconclusive: 16.6 µM [cytotoxic, partial curve, poor fit]"
same,Potency,[10],"inconclusive: 6.62 µM [cytotoxic, full curve, poor fit]"
same,Potency,[5],"inconclusive: 6.62 µM [cytotoxic, full curve, poor fit]"
CCC(C)n1ncn(-c2ccc(N3CCN(c4ccc(OC[C@H]5CO[C@](Cn6cncn6)(c6ccc(Cl)cc6Cl)O5)cc4)CC3)cc2)c1=O (some centres undefined),Potency,[1],"inconclusive: 15 µM [cytotoxic, partial curve] and active: 2.88 µM"
same,Potency,[2],"inconclusive: 23.7 µM [cytotoxic, partial curve]"
same,Potency,[3],inactive
same,Potency,[9],"inconclusive: 0.0209 µM [rising, full curve, poor fit]"
same,Potency,[5],"inconclusive: 0.0015 µM [rising, full curve, poor fit]"
OC[C@H]1O[C@@H](OCCc2ccc(O)cc2)[C@H](O)[C@@H](O)[C@H]1O,Potency,[1],inactive
same,Potency,[2],inactive
same,Potency,[3],inactive
same,Potency,[7],inactive
same,Potency,[6],"inconclusive: 6.51 µM [rising, single point]"
Cc1ccccc1-n1c(Cn2nc(-c3cccc(O)c3)c3c(N)ncnc32)nc2cccc(C)c2c1=O,Potency,[1],active: 6.61 µM
same,Potency,[2],active: 11.6 µM
same,Potency,[3],active: 2.35 µM
same,Potency,[7],"inconclusive: 2.64 µM [cytotoxic, full curve]"
same,Potency,[8],"inconclusive: 2.35 µM [cytotoxic, full curve]"
same,Potency,[9],inactive
same,Potency,[5],inactive
same,Potency,[6],"inconclusive: 25.1 µM [cytotoxic, single point]"
CCC1=C(C)CN(C(=O)NCCc2ccc(S(=O)(=O)NC(=O)NC3CCC(C)CC3)cc2)C1=O (centres undefined),Potency,[1],"inconclusive: 23.5 µM [cytotoxic, single point] and inconclusive: 16.4 µM [cytotoxic, partial curve]"
same,Potency,[2],"inconclusive: 37.2 µM [cytotoxic, single point] and inconclusive: 23.1 µM [cytotoxic, single point]"
same,Potency,[3],inactive
same,Potency,[9],inactive
same,Potency,[10],inactive
same,Potency,[5],inactive
CNS(=O)(=O)CCc1ccc2[nH]cc(C3CCN(C)CC3)c2c1,Potency,[1],"inconclusive: 5.31 µM [cytotoxic, single point] and inactive"
same,Potency,[2],"inconclusive: 2.99 µM [cytotoxic, single point]"
same,Potency,[12],inactive
CCN1CCN(c2ccc(Nc3cc(N(C)C(=O)Nc4c(Cl)c(OC)cc(OC)c4Cl)ncn3)cc2)CC1,Potency,[1],"inconclusive: 11.6 µM [cytotoxic, partial curve] and active: 2.63 µM"
same,Potency,[2],"inconclusive: 7.31 µM [cytotoxic, partial curve, poor fit]"
same,Potency,[12],active: 3.32 µM
same,Potency,[4],"inconclusive: 20.9 µM [cytotoxic, partial curve]"
same,Potency,[7],"inconclusive: 5.26 µM [cytotoxic, full curve]"
same,Potency,[8],"inconclusive: 14.8 µM [cytotoxic, partial curve]"
same,Potency,[9],active: 4.18 µM
O=S(=O)(c1cccc2cnccc12)N1CCCNCC1,Potency,[1],"inconclusive: 15 µM [cytotoxic, partial curve, poor fit] and inconclusive: 26.3 µM [cytotoxic, partial curve, poor fit]"
same,Potency,[2],inactive
same,Potency,[12],"inconclusive: 23.5 µM [cytotoxic, single point]"
same,Potency,[4],"inconclusive: 29.6 µM [cytotoxic, single point]"
same,Potency,[7],"inconclusive: 33.2 µM [cytotoxic, single point]"
same,Potency,[9],inactive
same,Potency,[6],"inconclusive: 4.61 µM [cytotoxic, single point] and inactive"
Cc1ccccc1C(OCCN(C)C)c1ccccc1 (centres undefined),Potency,[1],inactive
same,Potency,[2],"inconclusive: 33.5 µM [cytotoxic, single point]"
same,Potency,[12],"inconclusive: 33.2 µM [cytotoxic, single point]"
same,Potency,[4],inactive
same,Potency,[7],inactive
same,Potency,[9],inactive
same,Potency,[6],inactive
Nc1nnc(-c2cccc(Cl)c2Cl)c(N)n1,Potency,[1],inactive
same,Potency,[2],"inconclusive: 0.0237 µM [cytotoxic, full curve, poor fit]"
same,Potency,[12],inactive
same,Potency,[4],inactive
same,Potency,[8],inactive
same,Potency,[5],inactive
NS(=O)(=O)c1cc2c(cc1Cl)NCNS2(=O)=O,Potency,[1],inactive
same,Potency,[2],"inconclusive: 23.7 µM [cytotoxic, single point] and inactive"
same,Potency,[12],inactive
same,Potency,[4],inactive
same,Potency,[7],inactive
same,Potency,[10],inactive
same,activity (max response),[11],inactive: 11.9% and inactive: 0.967%
CC(C)(C)c1cnc(CSc2cnc(NC(=O)C3CCNCC3)s2)o1,Potency,[1],active: 0.296 µM
same,Potency,[2],active: 0.332 µM
same,Potency,[12],active: 0.59 µM
same,Potency,[4],active: 0.166 µM
same,Potency,[10],active: 0.935 µM
same,Potency,[5],active: 0.833 µM
COc1ccc2c3n(c(=NC(=O)c4cccnc4)nc2c1OC)CCN3,Potency,[1],"inconclusive: 0.116 µM [cytotoxic, partial curve]"
same,Potency,[2],"inconclusive: 0.0731 µM [cytotoxic, full curve]"
same,Potency,[12],active: 7.43 µM
same,Potency,[4],"inconclusive: 9.35 µM [cytotoxic, partial curve, poor fit]"
same,Potency,[7],"inconclusive: 14.8 µM [cytotoxic, partial curve]"
same,Potency,[8],"inconclusive: 9.35 µM [cytotoxic, partial curve]"
same,Potency,[9],active: 20.9 µM
same,Potency,[10],"inconclusive: 23.5 µM [cytotoxic, single point]"
same,"activity change, negative = viability loss",[6],inactive: -25.5% [at 3.81 µM]
Cc1c(NC(=O)c2ccc(C(C)(C)C)cc2)cccc1-c1cn(C)c(=O)c(Nc2ccc(C(=O)N3CCOCC3)cc2)n1,Potency,[1],"inconclusive: 18.4 µM [cytotoxic, partial curve] and inconclusive: 18.6 µM [cytotoxic, partial curve]"
same,Potency,[2],active: 11.4 µM and active: 16.6 µM
same,Potency,[3],inactive
same,Potency,[5],inactive
C[C@H](NC(=O)[C@@H](O)c1cc(F)cc(F)c1)C(=O)N[C@@H]1C(=O)N(C)c2ccccc2-c2ccccc21,Potency,[1],inactive
same,Potency,[2],"inconclusive: 20.9 µM [cytotoxic, partial curve, poor fit]"
same,Potency,[3],inactive
same,Potency,[5],"inconclusive: 0.418 µM [cytotoxic, partial curve, poor fit]"
same,Potency,[6],inactive
O=C1C(c2c(O)[nH]c3ccccc23)=Nc2ccccc21,Potency,[1],"inconclusive: 0.417 µM [cytotoxic, full curve]"
same,Potency,[2],"inconclusive: 25.2 nM [cytotoxic, full curve, poor fit] and inconclusive: 1.32 µM [cytotoxic, full curve]"
same,Potency,[12],inactive
same,Potency,[4],inactive
same,Potency,[7],inactive
same,Potency,[8],inactive
same,Potency,[10],inactive
